Measured values from article PMC11077052 (Nucleic Acids Research, 2024).

Molecular target: Human apurinic/apyrimidinic endonuclease 1 (human, UniProt P27695)
Assay: ITC

Chain of UniProt P27695 (P27695 whole entry): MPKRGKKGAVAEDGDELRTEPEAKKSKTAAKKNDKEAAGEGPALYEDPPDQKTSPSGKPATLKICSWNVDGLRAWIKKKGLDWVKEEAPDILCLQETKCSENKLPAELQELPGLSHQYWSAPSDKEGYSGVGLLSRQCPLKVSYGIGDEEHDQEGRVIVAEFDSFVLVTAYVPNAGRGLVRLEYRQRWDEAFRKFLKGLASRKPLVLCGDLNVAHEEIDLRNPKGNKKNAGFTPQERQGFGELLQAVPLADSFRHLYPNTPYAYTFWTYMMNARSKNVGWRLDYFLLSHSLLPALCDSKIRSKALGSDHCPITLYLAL

B1: Avidin (natural protein, UniProt P02701 25-152, looked up)
chain: ARKCSLTGKWTNDLGSNMTIGAVNSRGEFTGTYITAVTATSNEIKESPLHGTQNTINKRTQPTFGFTVNWKFSESTTVFTGQCFIDRNGKEVLKTMWLLRSSVNDIGDDWKATRVGINIFTRLRTQKE
modifications: glycosyl residues (positions not stated)
fold increase of binding affinity with biotin against without biotin: ~6 fold
